From publication PMC4336329 (PLoS ONE, 2015)
Screen size: about 310,000 compounds; about 2,200 (0.71%) showed an effect of 50% or more. Effects have a minus sign here. This is one part of the list. Where a SMILES comes first, the peptide text is derived from it. The star is where a group is joined. OBn = c1ccc(CO*)cc1

target: human ether-à-go-go-related gene (hERG) potassium channel (human, UniProt Q12809); assay: primary screen, population patch clamp on CHO cells stably expressing hERG
Sequence (Q12809 whole entry, looked up): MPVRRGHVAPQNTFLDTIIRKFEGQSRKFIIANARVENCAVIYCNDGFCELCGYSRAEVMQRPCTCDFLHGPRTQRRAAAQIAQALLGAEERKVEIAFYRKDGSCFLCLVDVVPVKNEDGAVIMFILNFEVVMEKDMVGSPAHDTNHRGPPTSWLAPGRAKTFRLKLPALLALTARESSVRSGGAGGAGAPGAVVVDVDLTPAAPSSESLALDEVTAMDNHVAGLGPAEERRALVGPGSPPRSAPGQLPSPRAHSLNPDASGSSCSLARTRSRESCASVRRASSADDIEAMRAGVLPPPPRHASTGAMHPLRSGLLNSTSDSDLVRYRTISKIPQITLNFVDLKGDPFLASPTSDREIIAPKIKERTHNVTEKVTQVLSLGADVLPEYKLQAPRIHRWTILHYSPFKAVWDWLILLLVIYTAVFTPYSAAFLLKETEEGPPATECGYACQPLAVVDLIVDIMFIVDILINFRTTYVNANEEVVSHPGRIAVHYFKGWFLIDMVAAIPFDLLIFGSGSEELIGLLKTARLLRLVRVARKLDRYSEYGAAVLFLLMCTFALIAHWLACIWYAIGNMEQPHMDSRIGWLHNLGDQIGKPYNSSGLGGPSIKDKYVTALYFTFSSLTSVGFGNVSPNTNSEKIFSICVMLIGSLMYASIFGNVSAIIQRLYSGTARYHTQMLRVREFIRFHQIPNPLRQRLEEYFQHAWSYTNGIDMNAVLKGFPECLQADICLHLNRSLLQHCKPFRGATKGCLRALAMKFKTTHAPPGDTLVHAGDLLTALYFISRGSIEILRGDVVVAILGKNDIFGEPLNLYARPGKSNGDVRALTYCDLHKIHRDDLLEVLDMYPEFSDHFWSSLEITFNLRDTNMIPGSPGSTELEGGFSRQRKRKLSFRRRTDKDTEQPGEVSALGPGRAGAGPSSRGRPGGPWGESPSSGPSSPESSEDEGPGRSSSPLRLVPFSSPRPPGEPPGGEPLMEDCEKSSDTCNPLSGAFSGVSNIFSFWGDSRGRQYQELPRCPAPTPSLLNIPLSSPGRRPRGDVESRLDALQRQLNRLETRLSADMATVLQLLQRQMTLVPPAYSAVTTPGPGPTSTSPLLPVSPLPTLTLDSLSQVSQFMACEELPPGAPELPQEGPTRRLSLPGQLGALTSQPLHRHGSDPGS

In order of falling “hERG current change (%, negative = inhibition) at 1uM” value:
1. COc1cccc(/C=N/NC(=O)CCc2c(C)n[nH]c2C)c1  21.3%
2. CC(=O)C1CCCN(C(=O)c2ccc3nc(Cc4cccc(Cl)c4)oc3c2)C1 (stereo not drawn)  19.7%
3. Cc1ccc(NC(=O)CN2C(=O)CCSc3ccc(S(=O)(=O)N4CCCC4)cc32)cc1  19%
4. O=C(CNC(=O)c1ccco1)N/N=C/c1ccc(O)c([N+](=O)[O-])c1  17.7%
5. CCC(C)C(N)C(=O)NC(CCC(=O)OCc1ccccc1)C(N)=O.Cl (stereo not drawn) (H-Ile-Glu(OBn)-NH2; configuration not given here)  17.2%
6. Cc1cc(C(=O)NNC(=O)c2cccc([N+](=O)[O-])c2)n[nH]1  16.9%
7. OCCC1CCCCN1CC(O)COCc1ccc(Cl)cc1 (stereo not drawn)  16.5%
8. CC(=O)N=c1sc2cc(C)ccc2n1C  16.4%
9. CSc1nc(C)cc(C)c1S(=O)(=O)c1ccccc1C  16.2%
10. CN(C)/C(=N\S(=O)(=O)c1ccccc1)c1ccc(F)cc1  16.1%
11. CC(=O)c1sc2c(c1OC(=O)c1ccc(Cl)cc1Cl)c(=O)n(-c1ccccc1)c(=S)n2-c1ccccc1  16%
12. Cc1cccnc1NC(=O)C1COc2ccccc2O1 (stereo not drawn)  16%
13. Cn1c(=O)c2sccc2n2c(CCCC(=O)NCc3cccnc3)nnc12  15.5%
14. O=C(/C=C/c1ccccc1)N/C(=C/c1ccccc1)C(=O)Nc1cccc(C(=O)O)c1  14.8%
15. CCc1cc2c(CN(C)Cc3ccccc3F)cc(=O)oc2cc1O  14.8%
16. CCc1nnc(NC(=O)c2ccc(-c3ccc([N+](=O)[O-])cc3Cl)o2)s1  14.1%
17. COc1ccc(OC)c(NC(=O)NCCc2c[nH]c3ccccc23)c1  13.4%
18. CC(C)C[C@H](NC(=O)c1nc[nH]c1C(=O)NC1CC[NH2+]CC1)C(=O)OCc1ccccc1.[Cl-]  13.1%
19. O=C(C#Cc1ccccc1)Nc1ccccc1F  13%
20. O=C(NCc1ccccc1)c1onc(CSc2ccncc2)c1C(=O)NCc1ccccc1  12.9%
21. Cc1cc(CN(C)C(=O)CC2C(=O)NCCN2Cc2c(F)cccc2Cl)on1 (stereo not drawn)  12.7%
22. COC(=O)c1c(C)noc1-c1snnc1C  12.7%
23. CN(C)c1ccc(P(=O)(Nc2ccc([N+](=O)[O-])cc2)N2CCOCC2)c(NC(=O)c2cccs2)c1 (stereo not drawn)  12.4%
24. Cc1ccc(CCC(=O)Nc2ccc(S(N)(=O)=O)cc2)o1  12.4%
25. Cc1ccc(NCc2nc3ccccc3n2C)cc1C  12.1%
26. CCOC(=O)c1nnn(-c2nc(N(C)C)nc(N(C)C)n2)c1C  11.9%
27. COc1ccc(S(=O)(=O)N2CCCOC2CNC(=O)C(=O)NCCCn2ccnc2)cc1OC (stereo not drawn)  11.6%
28. COc1ccc(N=Nc2c(N)n[nH]c2N)cc1  11.4%
29. N#CC1=C(O)CCCn2c1nc1ccccc1c2=O  11.3%
30. CC(C)(C)c1ccc(C(=O)N2CCNC(=O)C2CC(=O)Nc2ccc(F)cc2)cc1 (stereo not drawn)  11.2%
31. CCN(CC)S(=O)(=O)c1cccc(C(=O)NC(Cc2c[nH]c3ccccc23)c2nnc3n2CCC3)c1 (stereo not drawn)  11.2%
32. CN(CC(=O)NCCc1ccc(S(N)(=O)=O)cc1)Cc1c(F)cccc1Cl  10.8%
33. C[C@H](NC(=O)c1nc[nH]c1C(=O)N[C@H](C)c1ccccc1)C(=O)OC(C)(C)C  10.7%
34. CN1CCN(c2nc([N+](=O)[O-])nn2C)CC1  10.5%
35. O=C(CN1C(=O)C(=O)c2ccccc21)c1ccc(Cl)cc1  10.3%
36. Cc1ccc(C2C(C(=O)c3sc(C)nc3C)=C(O)C(=O)N2CCN(C)C)o1 (stereo not drawn)  9.83%
37. Cc1n[nH]c(C)c1S(=O)(=O)N1CCCC(C(=O)Nc2ccc(Br)cc2)C1 (stereo not drawn)  9.82%
38. COc1ccc(CN(C)Cc2cc(=O)oc3cc(C)c(C(C)C)cc23)cc1OC  9.71%
39. Cc1ccc(N(CC(=O)Nc2ccc(-c3nc4ccc(C)cc4s3)cc2)S(C)(=O)=O)cc1  9.66%
40. CN1CCOCCOCCN(C)C1=O  9.62%
41. CCCCn1c(N)c(N(CC(C)C)C(=O)CCNC(=O)c2ccccc2Cl)c(=O)[nH]c1=O  9.56%
42. OC(CCc1ccncc1)COc1ccccc1 (stereo not drawn)  9.33%
43. Oc1ccc(C[C@H]2CNCCN2CCCCC2CCCCC2)cc1  9.03%
44. CCOc1ccc(Cn2nnc(C(=O)NCCc3ccccc3)c2N)cc1  8.95%
45. Cc1nn(-c2ccccc2)c(Cl)c1C(=O)NNC(=O)c1ccncc1  8.68%
46. Cc1ccc(C)c(N(C(=O)c2csnn2)C(C(=O)NC2CCCCC2)c2ccncc2)c1 (stereo not drawn)  8.58%
47. CCc1cc(C(=O)N=Nc2c(O)[nH]c3ccc([N+](=O)[O-])cc23)c2ccccc2n1  8.07%
48. COc1ccc(NC(=O)CN2CCN(c3ccc(F)cc3)CC2)cc1  7.86%
49. COc1ccc(C2=NOC(C(=O)NCCCN3CCOCC3)C2)cc1 (stereo not drawn)  7.72%
50. O=C(Cc1ccccc1)NCC(=O)OCC(=O)c1ccc(Cl)c([N+](=O)[O-])c1  7.7%
51. COC(=O)c1cc(C)cc(=O)o1  7.43%
52. O=C(c1cc(-c2cccc(O)c2)on1)N1CCN(C(c2ccccc2)c2ccccc2)CC1  7.39%
53. O=C(NCCN1CCCCC1)c1cc(Cl)ccc1Cl  7.28%
54. Cc1ccc(-c2nc3ccccn3c2C=O)cc1  7.01%
55. COC(=O)c1sc(N)nc1C(C)(C)C  6.99%
56. Cn1nnc(NC(=O)c2cccs2)n1  6.92%
57. Cn1cnc([N+](=O)[O-])c1SCC(O)CCl (stereo not drawn)  6.77%
58. C=CCn1c(SCc2ccc(C(=O)Nc3nccs3)cc2)nnc1-c1ccc(C)c(Cl)c1  6.69%
59. C/C(=N\NC(=O)C1(C)CC1(Br)Br)c1ccc(NC(=O)C2CCC2)cc1 (stereo not drawn)  6.57%
60. Cc1cc(C)cc(NC(=O)C(OC(=O)c2ccc(O)cc2)c2ccccc2)c1 (stereo not drawn)  6.07%
61. COc1nnc(-c2ccc(N3CCOCC3)c(NC(C)=O)c2)c2ccccc12  5.8%
62. O=C(COC(=O)c1ccc(O)cc1O)NC12CC3CC(CC(C3)C1)C2  5.76%
63. COc1ccc(CNC(=O)CN(Cc2ccccc2OC)C(=O)c2csnn2)cc1  5.06%
64. Cc1nc2c(C(=O)O)cnn2c(C)c1Cc1ccccc1F  4.96%
65. C#CCOc1c(Br)cc(/C=N\NC(=O)CN2CCOCC2)cc1OCC  4.89%
66. COc1ccc(OC)c(S(=O)(=O)NCCc2csc(-c3cccnc3)n2)c1  4.87%
67. Cc1ccccc1NC(=O)Nc1cnccn1  4.46%
68. O=C(O)CC(CNC(=O)C1CCCN1C(=O)OCc1ccccc1)c1ccccc1 (stereo not drawn)  4.43%
69. CC(C)NC(=O)COC(=O)CNC(=O)c1cc(Cl)cc([N+](=O)[O-])c1  3.77%
70. COc1ccc2cc(C3=CCCCC3)ncc2c1  3.62%
71. CCN(CC(=O)Nc1ccc(C(=O)OC)cc1)Cc1ccccc1.O=C(O)C(=O)O  3.01%
72. CC(C)Cc1[nH]c(=O)c(C#N)c2c1CCCC2  2.89%
73. CCCCN1C(=O)c2ccc(C(=O)Nc3ccc(S(=O)(=O)N(C)C)cc3)cc2C1=O  2.47%
74. Cc1ccc(CN2CCSc3ccc(C(=O)NCc4cccnc4)cc32)cc1  1.31%
75. Cc1cc(F)ccc1S(=O)(=O)N1CCCOC1CNC(=O)C(=O)NCCc1ccccc1 (stereo not drawn)  0.892%
76. Cc1ccc([N+](=O)[O-])c2c1C(N1CCCCC1)C(C)(C)O2 (stereo not drawn)  -0.943%
77. Cc1ccc(S(=O)(=O)Oc2ccc(C(c3c(C)[nH][nH]c3=O)c3c(C)[nH][nH]c3=O)cc2)cc1  -1.65%
78. Cn1c(Cn2c(=O)sc3ccccc32)nnc1SCC(=O)N1CCCCCC1  -1.82%
79. CSc1nc(C)cc(Oc2ccc(OCCOc3ccccc3)nn2)n1  -2.37%
80. COc1ccc(-c2nn(-c3ccccc3)cc2C(=O)N(C)C)cc1  -2.64%
81. CN1CCN(CCCNC(=O)Nc2ccc([N+](=O)[O-])cc2)CC1  -3.49%
82. CCOC(=O)Cn1c(=O)c2c(nc3n2CC(C)CN3Cc2ccccc2)n(C)c1=O (stereo not drawn)  -4.09%
83. Cc1oc(-c2ccc(Cl)cc2)nc1CSCC(=O)NC1CCN(Cc2ccccc2)CC1  -19.2%
84. COc1cc(OC)c(OC)cc1CN1CCCC(C(=O)c2sccc2C)C1 (stereo not drawn)  -25.5%
85. CCCCC(O)(CCN1CCOCC1)c1ccc(Cl)cc1.Cl (stereo not drawn)  -51.3%
86. CCCCN(C)C(=O)C1CCN(CCCc2ccccc2)CC1.O=C(O)C(=O)O  -73.6%
87. O=C(Nc1ccccc1N1CCN(C(=O)c2ccc(Cl)cc2)CC1)c1cccc(F)c1  -81.2%
